Results on 81 sequences are retold here after paper PMC6602471.

The other results are listed elsewhere or left out. At the low end of the ranking the order means little.

The test deals with T1, ETS1 (UniProt P14921).
T1 sequence: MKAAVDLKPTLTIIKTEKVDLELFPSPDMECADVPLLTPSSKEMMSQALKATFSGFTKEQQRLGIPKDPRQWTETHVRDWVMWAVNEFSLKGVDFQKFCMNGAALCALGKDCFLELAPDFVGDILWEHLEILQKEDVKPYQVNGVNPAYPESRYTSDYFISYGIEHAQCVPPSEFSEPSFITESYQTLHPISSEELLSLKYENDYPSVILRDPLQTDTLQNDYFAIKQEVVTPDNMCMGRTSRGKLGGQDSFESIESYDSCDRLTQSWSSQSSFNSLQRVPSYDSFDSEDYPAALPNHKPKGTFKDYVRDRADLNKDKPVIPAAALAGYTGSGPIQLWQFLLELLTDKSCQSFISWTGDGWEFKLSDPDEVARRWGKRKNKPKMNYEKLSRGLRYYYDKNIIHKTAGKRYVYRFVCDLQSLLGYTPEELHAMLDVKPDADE
The experiment in a line: custom PBM. The conditions noted are these: custom protein-binding microarray; buffer, salt, pH and temperature not stated; high values mean tight binding; double strand, one strand shown.
On to “CACAATTTTTATAGTAATGTAGCACGCGTAACTCCTGTCTTGATTCGCTTGACGCTGCTG”, for which the binding signal (log fluorescence intensity) amounted to 8.41.

“CTGGGACCTGACCCAACTCTGCCACGTGGGTCGTTTGTCTTGATTCGCTTGACGCTGCTG”: the binding signal (log fluorescence intensity) is 8.18. With “GATTAATTTCTGCCCTTATTCGCAGGTGCCATAACAGTCTTGATTCGCTTGACGCTGCTG” the figure was 8.22; with “TGTCGGGTAAGGGAATGTAGATCACATGAATGAAAAGTCTTGATTCGCTTGACGCTGCTG”, 8.27. With “CTGGGACTTGACCCAACTCTGCCACGTGGGTCGCTTGTCTTGATTCGCTTGACGCTGCTG” the figure was 8.36; with “TGTCGGGTAAGGGAATGTATATCACGTGAATGAAAAGTCTTGATTCGCTTGACGCTGCTG”, 8.29; with “CACAATTTTTACAGTAATGTAGCACGCGTAACTGCTGTCTTGATTCGCTTGACGCTGCTG”, 8.17.

On to “GATTAATTTCTGCCCTTAGTCGCACGTGCCATAACAGTCTTGATTCGCTTGACGCTGCTG”, for which the binding signal (log fluorescence intensity) turned out to be 8.23. With “CACAATTTTTACAGTAATGTAGCACGCGTAACTACTGTCTTGATTCGCTTGACGCTGCTG” the figure was 8.22; with “TGTCGGGTAAGGGAATGTAGATCACGTGAATGAACAGTCTTGATTCGCTTGACGCTGCTG”, 8.22; with “GCTGCTGCGGTGCATAGCCCACCGGATGTGACCCCGGTCTTGATTCGCTTGACGCTGCTG”, 10.1. With “CGGAAGTGTCGTAAACGTTGGATATCCGGTTCTTCTGTCTTGATTCGCTTGACGCTGCTG” the figure was 11.5; with “GATTAATTTCTGCCCTTATTCGCACGGGCCATAACAGTCTTGATTCGCTTGACGCTGCTG”, 8.33; with “GCTGCTGCGGTGCCTACCCCACCGGATGTGACCCCGGTCTTGATTCGCTTGACGCTGCTG”, 10. With “CAGCATATGACTTCTTCCCTGAAGCAATTGATAACCGTCTTGATTCGCTTGACGCTGCTG” the figure was 8.31. “TACTGACTTATATATGCTAATGCACATGAATAGACCGTCTTGATTCGCTTGACGCTGCTG”: the binding signal (log fluorescence intensity) was 8.2. With “GCAGCTGCGGTGCATACCCCACCGGATGTGACCCCGGTCTTGATTCGCTTGACGCTGCTG” the figure was 10.3. Under “TGTCGGGTAAGGGAATGTAGATTACGTGAATGAAAAGTCTTGATTCGCTTGACGCTGCTG” stands 8.2. With “GATTAATTTCTGCCCTTATTCGCATGTGCCATAACAGTCTTGATTCGCTTGACGCTGCTG” the figure was 8.26. On to “CTGGGACTTGACCTAACTCTGCCACGTGGGTCGTTTGTCTTGATTCGCTTGACGCTGCTG”, for which the binding signal (log fluorescence intensity) was 8.09. As for “CGGAAGTGTTGTAAACGTCGGATATCCGGTTCTTCTGTCTTGATTCGCTTGACGCTGCTG”, the binding signal (log fluorescence intensity) is 11.6.

As to “CCTGCTGCGGTGCATACCCCACCGGATGTGACCCCGGTCTTGATTCGCTTGACGCTGCTG”, the binding signal (log fluorescence intensity) was 10.4. With “GGAAAAAGGCCTAGGGTAACACCGGAAGTGGGCTTAGTCTTGATTCGCTTGACGCTGCTG” the figure was 12.1. With “TGTCGGGTAAGGGAATGTAGATCACGTGAATGAAAGGTCTTGATTCGCTTGACGCTGCTG” the figure was 8.27; with “GTGTATAGGATCCCATCGAACACACGTGTTAAAATGGTCTTGATTCGCTTGACGCTGCTG”, 8.36; with “GAGCATAGGACTTCTTCCCTGAAGCAATTGATAACCGTCTTGATTCGCTTGACGCTGCTG”, 8.32.

With “TCCGGCTACCAGCTCCACCGACTTCAGGCCTTGTAGGTCTTGATTCGCTTGACGCTGCTG”, the binding signal (log fluorescence intensity) came out at 8.07. Under “GATTCATTTCTGCCCTTATTCGCACGTGCCATAACAGTCTTGATTCGCTTGACGCTGCTG” stands 8.26; under “GTTTATAGGATCCCATCCAACACACGTGTTAAAATGGTCTTGATTCGCTTGACGCTGCTG”, 8.21; under “GTGCATAGGATCCCATCCAACACACGTGTTAAAATGGTCTTGATTCGCTTGACGCTGCTG”, 8.28.

Regarding “CACAATTTTTGCAGTAATGTAGCACGCGTAACTCCTGTCTTGATTCGCTTGACGCTGCTG”, the binding signal (log fluorescence intensity) was 8.13.

“GATTAATTTCTGCCCATATTCGCACGTGCCATAACAGTCTTGATTCGCTTGACGCTGCTG”: the binding signal (log fluorescence intensity) was 8.2.

Turning to “GCTGCTGCGGTGCATACCCCACCGGCTGTGACCCCGGTCTTGATTCGCTTGACGCTGCTG”, the binding signal (log fluorescence intensity) stood at 8.16.

“TGTCGGGTAAGGGAATCTAGATCACGTGAATGAAAAGTCTTGATTCGCTTGACGCTGCTG”: the binding signal (log fluorescence intensity) worked out at 8.29.

As to “TCCGGCTACCAGCACCACCCACTTCAGGCCTTGTAGGTCTTGATTCGCTTGACGCTGCTG”, the binding signal (log fluorescence intensity) is 8.29. Under “TACTGACTTATATATGCGAATTCACATGAATAGACCGTCTTGATTCGCTTGACGCTGCTG” stands 8.31; under “TATTGACTTATATATGCGAATGCACATGAATAGACCGTCTTGATTCGCTTGACGCTGCTG”, 8.12. With “CTGGGACTTGACCCAACTCTGCCACGTGGGTCCTTTGTCTTGATTCGCTTGACGCTGCTG” the figure was 8; with “CAGCATAGGACTGCTTCCCTGAAGCAATTGATAACCGTCTTGATTCGCTTGACGCTGCTG”, 8.31; with “TACTAACTTATATATGCGAATGCACATGAATAGACCGTCTTGATTCGCTTGACGCTGCTG”, 8.39. Under “CAAAGGGAAGACGGTTGTGGTAGTTCCGGGTATTAAGTCTTGATTCGCTTGACGCTGCTG” stands 8.6. As to “GATTAATTTCTGCCCTTATTCGCCCGTGCCATAACAGTCTTGATTCGCTTGACGCTGCTG”, the binding signal (log fluorescence intensity) was 8.24.

Turning to “GCTGCTGCGGTGCATACCCCACCGGATGTGACCCCAGTCTTGATTCGCTTGACGCTGCTG”, the binding signal (log fluorescence intensity) stood at 10.1.

Take “TGTCGGGTAAGGGAATGTAGATCACGTGATTGAAAAGTCTTGATTCGCTTGACGCTGCTG”: the binding signal (log fluorescence intensity) was 8.38.

Regarding “GATTAATTTCTGCCCTTATTCGCACGTGGCATAACAGTCTTGATTCGCTTGACGCTGCTG”, the binding signal (log fluorescence intensity) came out at 8.25. With “GCTGCTGCGGTGCATACCCCACCGGATGTCACCCCGGTCTTGATTCGCTTGACGCTGCTG” the figure was 9.82; with “TACTGACTTATATATGCGAATGCACTTGAATAGACCGTCTTGATTCGCTTGACGCTGCTG”, 8.34. Under “GGCAAAAGGCCCAGGGTAACACCGGAAGTGGGCTTAGTCTTGATTCGCTTGACGCTGCTG” stands 11.7; under “CGGAAGAGTCGTAAACGTCGGATATCCGGTTCTTCTGTCTTGATTCGCTTGACGCTGCTG”, 11.8; under “TAAAGGGAAGACGGTTGTGGTAGGTCCGGGTATTAAGTCTTGATTCGCTTGACGCTGCTG”, 8.3. Under “TGTCGGGTAAGCGAATGTAGATCACGTGAATGAAAAGTCTTGATTCGCTTGACGCTGCTG” stands 8.18; under “GCTGCTGCGGTCCATACCCCACCGGATGTGACCCCGGTCTTGATTCGCTTGACGCTGCTG”, 10.2; under “CAGCATAGGACTTCTTCCGTGAAGCAATTGATAACCGTCTTGATTCGCTTGACGCTGCTG”, 8.66. Consider “CACAATTTTAACAGTAATGTAGCACGCGTAACTCCTGTCTTGATTCGCTTGACGCTGCTG”, for which the binding signal (log fluorescence intensity) stood at 8.24. With “CACAATGTTTACAGTAATGTAGCACGCGTAACTCCTGTCTTGATTCGCTTGACGCTGCTG” the figure was 8.47. Under “CTGGGACTTGACCCAACTCAGCCACGTGGGTCGTTTGTCTTGATTCGCTTGACGCTGCTG” stands 8.27; under “AACAATTTTTACAGTAATGTAGCACGCGTAACTCCTGTCTTGATTCGCTTGACGCTGCTG”, 8.25. With “GATTAATTGCTGCCCTTATTCGCACGTGCCATAACAGTCTTGATTCGCTTGACGCTGCTG” the figure was 8.19; with “TCCGGCTACCAGCTCCACCCACTTCAGGCCTTGTACGTCTTGATTCGCTTGACGCTGCTG”, 8.09. With “TGTCGGATAAGGGAATGTAGATCACGTGAATGAAAAGTCTTGATTCGCTTGACGCTGCTG”, the binding signal (log fluorescence intensity) was 8.17. With “CTGGGACTTGACACAACTCTGCCACGTGGGTCGTTTGTCTTGATTCGCTTGACGCTGCTG” the figure was 8.38; with “GGAAAAAGGCCCAGGGTAAGACCGGAAGTGGGCTTAGTCTTGATTCGCTTGACGCTGCTG”, 12; with “TGTCGGGTGAGGGAATGTAGATCACGTGAATGAAAAGTCTTGATTCGCTTGACGCTGCTG”, 8.08. Under “GGAAAAAGGCCCAGGGTAACACCGGAAGTGGGCTTTGTCTTGATTCGCTTGACGCTGCTG” stands 12.1; under “TGTCGGGTAAGGGAATGTAGATCAGGTGAATGAAAAGTCTTGATTCGCTTGACGCTGCTG”, 8.18. Under “CGGAAGTGTCGTAAACGTCCGATATCCGGTTCTTCTGTCTTGATTCGCTTGACGCTGCTG” stands 12.2; under “CAGCATAGGACTTCTTTCCTGAAGCAATTGATAACCGTCTTGATTCGCTTGACGCTGCTG”, 8.34; under “GCTGCTGCGGTGCATACCCCACCGGATGTGGCCCCGGTCTTGATTCGCTTGACGCTGCTG”, 10.3. As to “GTGTATAGGATCCCATCCAACACACGTGTAAAAATGGTCTTGATTCGCTTGACGCTGCTG”, the binding signal (log fluorescence intensity) came to 8.14. With “TCCGGCTACCAGCTCCACCCACTTCAGGCCTCGTAGGTCTTGATTCGCTTGACGCTGCTG” the figure was 8.2; with “GTGTATAGGCTCCCATCCAACACACGTGTTAAAATGGTCTTGATTCGCTTGACGCTGCTG”, 8.22; with “TACTGACTTATATGTGCGAATGCACATGAATAGACCGTCTTGATTCGCTTGACGCTGCTG”, 8.39. Under “TGTCGGGTAAGGGAATGTAGAACACGTGAATGAAAAGTCTTGATTCGCTTGACGCTGCTG” stands 8.46; under “CGGAAGTGTCGTAAACGTCGGATATCCGCTTCTTCTGTCTTGATTCGCTTGACGCTGCTG”, 10.1; under “GATTAATTTCTGCCCTTATTCGCACGTGCCATAACGGTCTTGATTCGCTTGACGCTGCTG”, 8.18. Take “CACAATTTTTACAGTAATGTTGCACGCGTAACTCCTGTCTTGATTCGCTTGACGCTGCTG”: the binding signal (log fluorescence intensity) was 8.18. Under “TAAAGGGAAGACGGTTGTGGGAGTTCCGGGTATTAAGTCTTGATTCGCTTGACGCTGCTG” stands 8.37; under “GGGTATAGGATCCCATCCAACACACGTGTTAAAATGGTCTTGATTCGCTTGACGCTGCTG”, 8.44; under “GGAAAAAGGCCCAGGGTAACACCGGAAGAGGGCTTAGTCTTGATTCGCTTGACGCTGCTG”, 9.85. Under “TGTCGGGTAAGGGAAGGTAGATCACGTGAATGAAAAGTCTTGATTCGCTTGACGCTGCTG” stands 8.2. On to “TGCCGGGTAAGGGAATGTAGATCACGTGAATGAAAAGTCTTGATTCGCTTGACGCTGCTG”, for which the binding signal (log fluorescence intensity) worked out at 8.06.
